# Test results from the supplement of paper PMC12645437, “Orthogonal IMiD-Degron Pairs Induce Selective Protein Degradation in Cells” (ACS Chemical Biology, 2025).
# Some of the results follow.
# Biological target: no compound (DMSO)
# Assay: log2 fold change of degron read counts, EGFP-low vs EGFP+ sorted cells; higher = lower degron-EGFP level without compound (poor expression or instability)
# Details: compound: DMSO control; 18 h
# 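Further: jurkat cells carrying a lentiviral library of mutant zinc finger degrons fused to EGFP plus mCherry, mCherry+ cells FACS sorted, degron abundance counted by next-generation sequencing.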
row,Sequence,log2 fold change of degron read counts
1,FYCDQCGAGFTQKGNLLRHIKL,-0.763
2,FECPQCGAMFTQKGNLLRHIKL,-1.39
3,FGCEICGRFFTQKGNLLRHIKL,0.365
4,FWCEICGHGFTQKGNLLRHIKL,-0.371
5,FNCSVCGHTFTQKGNLLRHIKL,-0.226
6,FYCPQCGAGFTQKGNLLRHIKL,-0.456
7,FRCEICGHNFTQKGNLLRHIKL,-1.08
8,FQCPVCGACFTQKGNLLRHIKL,-0.169
9,FNCSVCGHSFTQKGNLLRHIKL,-0.652
10,FICDQCGACFTQKGNLLRHIKL,-2.67
11,LYCPICGFQCTQKGNLLRHIKL,0.844
12,FTCDVCGAFFTQKGNLLRHIKL,-1.01
13,FVCNQCGAYFTQKGNLLRHIKL,-0.151
14,FCCPICGHAFTQKGNLLRHIKL,-0.0166
15,FKCDQCGAAFTQKGNLLRHIKL,-2.73
16,FYCPVCGAEFTQKGNLLRHIKL,0.0409
17,LDCNQCGFNCTQKGNLLRHIKL,0.173
18,FTCEICGRKFTQKGNLLRHIKL,-1.53
19,FCCDVCGAQFTQKGNLLRHIKL,-1.38
20,FTCNQCGHVFTQKGNLLRHIKL,-0.935
21,FSCPVCGAGFTQKGNLLRHIKL,-0.698
22,FSCNQCGHNFTQKGNLLRHIKL,0.127
23,FSCPVCGAAFTQKGNLLRHIKL,0.18
24,FHCNVCGAEFTQKGNLLRHIKL,-1.98
25,LMCEICGFYCTQKGNLLRHIKL,0.848

row,Sequence,log2 fold change of degron read counts
1,FHCPICGAVFTQKGNLLRHIKL,-0.319
2,FSCPQCGANFTQKGNLLRHIKL,-0.656
3,FLCNICGACFTQKGNLLRHIKL,-1.07
4,FGCPICGRIFTQKGNLLRHIKL,0.685
5,FECNVCGATFTQKGNLLRHIKL,-1.26
6,FACPVCGACFTQKGNLLRHIKL,-0.0038
7,FICPICGHWFTQKGNLLRHIKL,-0.0911
8,FMCNQCGHMFTQKGNLLRHIKL,0.312
9,FCCNVCGAMFTQKGNLLRHIKL,-0.191
10,LRCNQCGFWCTQKGNLLRHIKL,1.86
11,FLCNQCGRAFTQKGNLLRHIKL,-0.576
12,FLCPICGHLFTQKGNLLRHIKL,0.448
13,FICDVCGAVFTQKGNLLRHIKL,-1.01
14,FFCNICGATFTQKGNLLRHIKL,-0.0356
15,FGCEICGRYFTQKGNLLRHIKL,-0.416
16,FYCPICGAWFTQKGNLLRHIKL,0.979
17,FGCEQCGAVFTQKGNLLRHIKL,-0.755
18,LICNQCGFQCTQKGNLLRHIKL,-0.456
19,FMCPICGRPFTQKGNLLRHIKL,-0.52
20,FNCEICGRVFTQKGNLLRHIKL,-0.714
21,LGCNQCGFDCTQKGNLLRHIKL,0.46
22,FRCNQCGAIFTQKGNLLRHIKL,0.429
23,FMCDQCGARFTQKGNLLRHIKL,-1.81
24,FWCPICGRQFTQKGNLLRHIKL,0.486
25,FHCNVCGAYFTQKGNLLRHIKL,0.177
